This note sets out measurements from the supplement of paper PMC11417369.

The other results are listed elsewhere or left out.

The experiment has as its system PfAP2-HC AP2 domain (GST-tagged). Description: gcPBM binding intensity (ln(normalized median fluorescence intensity)); higher = stronger DNA binding. A digest of the protocol:
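After 1 h on an Agilent 4 × 180k array of primer-extended double-stranded 36-bp intergenic genomic probes and negative controls, bound GST-tagged P. falciparum DNA-binding domains were detected with Alexa488 anti-GST antibody and scanned at 488 nm. The domains had been expressed in E. coli, and binding took place in 1× PBS with 1% milk, 0.2 mg/ml BSA, 0.5% salmon testes DNA and 0.03% Triton X-100. Binding intensity is the highest Masliner-normalised natural-log median intensity across replicate spots of either probe orientation.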
“AAGAAAAACAATACGTGTACCAAGCATCCTACTAAC [XGTACX_site6628]”: the “gcPBM binding intensity (ln)” value came out at 10.4.

In the case of “ATATACTATTATGTGTGTACATAATAATTTATTATA [XGTACX_site3776]”, the “gcPBM binding intensity (ln)” value came out at 9.75.

Regarding “TCATACATTTTCCTTGCACACATTTATAATTAATGG [CACACA_site4511]”, the “gcPBM binding intensity (ln)” value turned out to be 9.96.

Regarding TAAAACAAAAAAAAGATGCACTATTTATTTTATTAT, the “gcPBM binding intensity (ln)” value was found to be 9.53.

For “AAAAAAATATATATATATATATATATATTATATATG [GTGCAC_negctrl_site654]”, the “gcPBM binding intensity (ln)” value is 9.48.

On to “TAATTATAGGTATACACACACATACATTTACATAAC [CACACA_site7509]”, for which the “gcPBM binding intensity (ln)” value came to 10.7.

Turning to “TTTTATTATTTTTGTTGTACAGTATACTGTATGATT [XGTACX_site5359]”, the “gcPBM binding intensity (ln)” value is 9.69.

As to “AAAAAAAAGGAAAATAAAAATAAAAAAAAATAATAA [XGTACX_negctrl_site601]”, the “gcPBM binding intensity (ln)” value worked out at 9.5.

As to “TGAGAAAAAAAGAATTGTACATATAAAATATAACAA [XGTACX_site3500]”, the “gcPBM binding intensity (ln)” value was found to be 9.48.

Take “TTATCACATTATTGCACACACATAAAGAAAAAAATA [CACACA_site2841]”: the “gcPBM binding intensity (ln)” value is 9.94.

As to “AAAGATACTTTCCTCAAACACACAAAACTATACAAC [CACACA_site1475]”, the “gcPBM binding intensity (ln)” value turned out to be 9.91.

On to “AATAAAAAGAAACACACACACACACCCATATATATA [CACACA_site3589]”, for which the “gcPBM binding intensity (ln)” value worked out at 11.5.

In the case of “ATATAAGAACAAAATTGTACATAAATATTTATATAA [XGTACX_site7404]”, the “gcPBM binding intensity (ln)” value came to 9.78.

Take “TTTTTTGTTATTTTCCGTTTTTTTCCATTATAATTT [GTGCAC_negctrl_site461]”: the “gcPBM binding intensity (ln)” value was found to be 9.85.

For “TATTCAAAGAAAAACTGTACGTGTAGCCTACATCCT [XGTACX_site7707]”, the “gcPBM binding intensity (ln)” value is 9.46.

As to “ACGTTAAAAACAAGTTGTACACAATAAATTATTCTT [XGTACX_site6321]”, the “gcPBM binding intensity (ln)” value amounted to 9.75.

For “TATATATATATATGTAGTACTTTACAAAATAATTCG [XGTACX_site5322]”, the “gcPBM binding intensity (ln)” value amounted to 9.59.

Take “TTTATATTTATGTAGGTGCATTTGTTTACAACATAT [GTGCAC_site9511]”: the “gcPBM binding intensity (ln)” value stood at 9.75.

For “TTATTTATACGCTATGAGTTTGATACAAACAATTAA [XGTACX_negctrl_site456]”, the “gcPBM binding intensity (ln)” value was 9.56.

On to “TTTTTACGGAATTAGAGAAAAGAAATAAAAAAAAAA [XGTACX_negctrl_site436]”, for which the “gcPBM binding intensity (ln)” value was found to be 9.14.

With “TAGTTATCACATTGCACACACATTTCCTTTTACATT [CACACA_site7589]”, the “gcPBM binding intensity (ln)” value was found to be 10.2.

As for “GCATAACCTTTATATTGTACATATACCTTTATTGTT [XGTACX_site6046]”, the “gcPBM binding intensity (ln)” value amounted to 10.2.

Take AATAAATTCATGATAGTGCAAAAATTATTTTTGTTA: the “gcPBM binding intensity (ln)” value came out at 9.66.

Take “AAAGATGATAAAATATGTACACACAGTTTATACATT [XGTACX_site8703]”: the “gcPBM binding intensity (ln)” value worked out at 9.95.

On to “TGAGTCTTTTACATTGCACACACATTTCTTTCCTTT [CACACA_site8978]”, for which the “gcPBM binding intensity (ln)” value is 10.3.

As to “ATTATCCATCAAAAGGTGCAAATTTTTAATTATAAA [GTGCAC_site9932]”, the “gcPBM binding intensity (ln)” value was 9.49.

On to “ATATATGTATATATGTACATGAATATATAAAGAAAA [CACACA_negctrl_site315]”, for which the “gcPBM binding intensity (ln)” value was determined as 9.99.

Regarding “GTTTATATTTAATTTTTTTGTTTTTTTGTGTAATTC [XGTACX_negctrl_site194]”, the “gcPBM binding intensity (ln)” value is 9.66.

For “TATTTATACTAATATGCATGTAATCGAAATACAGCT [TGCATGCA_site457]”, the “gcPBM binding intensity (ln)” value was found to be 9.6.

“ACAAATAAATAAATATGTACTTAATTATATAATTGA [XGTACX_site5626]”: the “gcPBM binding intensity (ln)” value stood at 9.5.

“ATATATATAAACAAAAGTACATATATAAATTCATTT [XGTACX_site3482]”: the “gcPBM binding intensity (ln)” value came out at 9.63.

On to “TCTTATATTATATTGTGTATTAAAATTTAACTTCAA [TGCATGCA_negctrl_site565]”, for which the “gcPBM binding intensity (ln)” value came to 9.57.

“TTAAAGTTACATTCGACACACACATAACAACTAAAT [CACACA_site9130]”: the “gcPBM binding intensity (ln)” value is 10.1.

Take “AATAAAAAAAAAATATATATTTTTTTTTTTTTTTTT [CACACA_negctrl_site54]”: the “gcPBM binding intensity (ln)” value amounted to 9.4.

“ATCTATTCACACTTTTAAAAATTAAATATATTATAT [TGCATGCA_negctrl_site610]”: the “gcPBM binding intensity (ln)” value turned out to be 9.58.

As to “TAATTTTTTTTTTATAGTACACATATTAAAGAATTA [XGTACX_site2485]”, the “gcPBM binding intensity (ln)” value amounted to 9.31.

As for “ATAAGAAGAAGAAAAACACACATATGTAGATATATA [CACACA_site7469]”, the “gcPBM binding intensity (ln)” value amounted to 9.86.

Regarding “ATATATATATATATATGTACTTATTTATATATTTAT [XGTACX_site7811]”, the “gcPBM binding intensity (ln)” value was 9.5.

For the sequence “GTATATATTAAAAAAAAAAAAAAAAAATTAAAATTA [CACACA_negctrl_site572]”, the “gcPBM binding intensity (ln)” value amounted to 9.24.

On to GGAATATTAATAAGAGTGCATTTTGTATTCAATATG, for which the “gcPBM binding intensity (ln)” value was 9.59.

Consider “AAAAAAAAAATTCATTGTACATATATATATATATAT [XGTACX_site8346]”, for which the “gcPBM binding intensity (ln)” value was 9.63.

As to “TAGACTGGACATTAATGTACATAAATATATATGTAT [XGTACX_site7726]”, the “gcPBM binding intensity (ln)” value turned out to be 9.71.

“TATAAGAAAAATAACACACACATAAACATATATACA [CACACA_site2785]”: the “gcPBM binding intensity (ln)” value was 10.3.

“TTATTGTACTTGCTCGCATGCAATAAAAATATATTA [TGCATGCA_site580]”: the “gcPBM binding intensity (ln)” value turned out to be 9.43.

As for “ATGCTTCCTTAGGAATGTACACACATATATAATATG [XGTACX_site873]”, the “gcPBM binding intensity (ln)” value was 9.82.

For the sequence “ATAAAAATAAAAAACTGTACATACAAGATGTTACAG [XGTACX_site6690]”, the “gcPBM binding intensity (ln)” value was determined as 9.6.

Take “AAATAATATTTTACATGTACATAATAATTATTGGAT [XGTACX_site2783]”: the “gcPBM binding intensity (ln)” value came to 9.62.

“TAAATATTTAAATATTGTACTAGGTATAATTGAATA [XGTACX_site3604]”: the “gcPBM binding intensity (ln)” value was 9.6.

In the case of “ATATTGTATTATCTTTATGTACCAAAAAAAAAAAAA [CACACA_negctrl_site1036]”, the “gcPBM binding intensity (ln)” value amounted to 9.22.

On to ATTATTAATAATTGTGTGCACAAATATTTATATGCT, for which the “gcPBM binding intensity (ln)” value is 9.93.

Turning to “ATATCAATATAAAGTACACACTATAGTATGTATTAT [CACACA_site5286]”, the “gcPBM binding intensity (ln)” value is 10.1.

For the sequence “TTTATACAATTAGACACACACAAAAAGTATATATAT [CACACA_site1082]”, the “gcPBM binding intensity (ln)” value was determined as 10.2.

For “CATTCAAAGAAAAACTGTACGTGTAGCAAACGTCAT [XGTACX_site2576]”, the “gcPBM binding intensity (ln)” value is 9.63.

As for “ATATAATTACATTGATGTACACGAAATGATTAACAT [XGTACX_site5183]”, the “gcPBM binding intensity (ln)” value amounted to 9.73.

With “ATGGGTATATTTCCACGTACAAAAAATCCGAATTGC [XGTACX_site1490]”, the “gcPBM binding intensity (ln)” value came out at 9.45.

On to “ATGAACATACAATATACACACATATAGATTTATATT [CACACA_site6524]”, for which the “gcPBM binding intensity (ln)” value was 9.87.

With “TCATTATTAATATGTAGTACATTATATGATATGTAT [XGTACX_site8978]”, the “gcPBM binding intensity (ln)” value was 9.64.
